# Source: the supplement of paper PMC11417369
# ± gives the standard deviation of the averaged measurements. Some of the results follow.
# Test system: PfAP2-G AP2 domain (GST-tagged)
# Assay: gcPBM binding intensity (ln(normalized median fluorescence intensity)); higher = stronger DNA binding
# Procedure, shortened: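 The highest Masliner-normalised natural-log median intensity across replicate spots of either probe orientation is reported as binding intensity. GST-tagged P. falciparum DNA-binding domains expressed in E. coli were applied for 1 h to an Agilent 4 × 180k array of primer-extended double-stranded 36-bp intergenic genomic probes plus negative controls, and bound protein was detected with Alexa488 anti-GST antibody and scanned at 488 nm.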
row,Sequence,gcPBM binding intensity (ln)
1,ACAAAAAAAAATATGTTAACTATATATATATATATA [CACACA_negctrl_site346],9.96 ± 0.45
2,AATTGGGAACTGTAATGTACATATATTGAAAGTATA [XGTACX_site7081],11.1 ± 0.6
3,ATATATTTATATATTACACACAATATTGGAGACATA [CACACA_site931],10.2 ± 0.12
4,AGAAAACTCGCTTTTCTAAATCTCAAAAAAAAAAAA [XGTACX_negctrl_site94],9.49 ± 0.13
5,ATACATATATTAGGATGTACGTTTATTTTAGTTATT [XGTACX_site7169],11.3 ± 0.74
6,TTATATTTCTTGAAGGGTACATACCATTATTTTTAA [XGTACX_site1159],11.1 ± 0.59
7,GTTTCTATTCACATTTTACACACGTCCATCGCATTT [CACACA_site9142],10.7 ± 0.45
8,TTTTGTTGTATGATAATTCTTTTATCAATATGTCTT [TGCATGCA_negctrl_site567],9.73 ± 0.16
9,ACCAAATTATCAAATGGTACACATAAAATAATAAAA [XGTACX_site865],11.3 ± 0.74
10,TAATTAACCTATGCATTCATATAGATACATAAATAT [CACACA_negctrl_site885],9.86 ± 0.014
11,TATAATATTATTTGAAGTACAAACATAAAAGAATTA [XGTACX_site3161],11.2 ± 0.79
12,AGATCATAATATTATACACACATTATGTATATGTAA [CACACA_site1490],9.82 ± 0.12
13,TGAATACATAAATATAGTACATATATATATATATTA [XGTACX_site8756],10.9 ± 0.74
14,GAACCATTTTTTGGTATACACACGTAATTATAGAAT [CACACA_site1851],10.2 ± 0.14
15,TACAAAAAATTATGGAGTACATATATAATATACAAT [XGTACX_site1004],11.5 ± 0.88
16,AGTTATTTTTATATTTCACACACATATACTTTTACA [CACACA_site9357],10.2 ± 0.14
17,AATAATTCTTAAAGGTGTACAATATGTATATAAGAA [XGTACX_site595],11.7 ± 0.6
18,ATTATGAATTTTAATTGTACATTATTATAGAATGTA [XGTACX_site619],10.7 ± 0.48
19,AAAAAAAAAAGAAAAGGTACACAGAATATATATATA [XGTACX_site6914],11.1 ± 0.91

row,Sequence,gcPBM binding intensity (ln)
1,AAAAAAATAAGACACACACACAAAAAAATAAAAATA [CACACA_site6357],10.1 ± 0.26
2,AAAAATTCTTCCCAAGCATGCGCGCGTAAAATATTT [TGCATGCA_site77],10.4 ± 0.2
3,AAATTTTTTATTAGTAGTACGCATAAATATATGTAT [XGTACX_site1934],11.4 ± 0.87
4,AAAATTAAAATATCACGTACGAAGAAAAAATTAAGA [XGTACX_site6437],11 ± 0.47
5,TACACCCACCAACACACACACACACTAATAAAAAAA [CACACA_site8060],10.2 ± 0.44
6,CCTTTCCTAGCACATGCACACAAAAAAAAAAAAAAA [CACACA_site8396],10.3 ± 0.59
7,AAACGGCTATTAAAATGTACATGTAAATATATTAAA [XGTACX_site918],11 ± 0.59
8,AATACATATGGGTGTACACATTATATATATATATAT [CACACA_site4601],11.6 ± 0.89
9,ATCTTTTTACTTAATACACACACACCCAAAAAAAAA [CACACA_site8221],10.4 ± 0.33
10,ATATATATATCAAAATGTACAAAAATAGAATTTAAA [XGTACX_site8292],10.6 ± 0.28
11,CAGTAGTTTTTATGGGTGCAAAACATATATATAACA,10.6 ± 0.49
12,ACATTTTGTAAAGAATGTACATATATATATATATTC [XGTACX_site8004],10.9 ± 0.47
13,TATATATATATATACACACACACACCCCAAAGCGTA [CACACA_site64],10.5 ± 0.74
14,AAAAAATGCGACATGTGTACACATATATATATATAT [XGTACX_site1679],11.8 ± 0.99
15,GAAAATATTACATACACGCACACATTAATATATTTA [CACACA_site2604],10.3 ± 0.3
16,CATGAATATTTATACATGCACACTAAAATAAAGAAT [CACACA_site2412],10.16 ± 0.078
17,GAGGGTATAATAAAAGCACACACAAAGATATAAATA [CACACA_site9087],10.1 ± 0.23
18,TTGTGTACATATTAAGTGCATATATATATATATATA,11.7 ± 1.2
19,TATATATATATAGATGCATGCAATTACATATAACAA [TGCATGCA_site118],9.89 ± 0.17

row,Sequence,gcPBM binding intensity (ln)
1,TACATCAAACAAGTATGTACATATATATATATATAT [XGTACX_site7415],11.1 ± 0.7
2,ATTTTCTATATCTTTCAACACACAAATTTTTTTTTC [CACACA_site7918],9.94
3,AATAAATAGTAGTAGGTGCTACTATATTATATATAT [GTGCAC_site9452],9.675 ± 0.035
4,TATGTAATAATAAACGGTACACTATATTGTATGAAA [XGTACX_site4648],10.7 ± 0.4
5,GCATATGATGAGCATATAATCATAAGAAAAAAAAAA [CACACA_negctrl_site701],9.64 ± 0.014
6,TTCTGTATAACACAAATTTTTTTTTATTCACTCTGT [TGCATGCA_negctrl_site410],9.77 ± 0.26
7,TTTTTATCAAATAAATGTACACATATTAAATGAAAT [XGTACX_site555],11.4 ± 0.81
8,ATATTAAAATTAAACGCATGCATATATTATAAAAGA [TGCATGCA_site231],9.94 ± 0.11
9,CTAATTAATGGGTACATACACACATATATACATACA [CACACA_site743],11.3 ± 0.82
10,GGAAATAATATTATTACACACCAAAATGTATAAAAA [CACACA_site4036],10.14 ± 0.057
11,AAAATATTCACGTGTACATATATATATATATATTAT [TGCATGCA_negctrl_site192],11.4 ± 0.83
12,AACACTTCATACACGTGTACAAATATAATATAGACA [XGTACX_site5671],11.2 ± 0.73
13,TTATATCTTATAAAATGTACATAAAATATATAATAT [XGTACX_site7647],11.2 ± 0.61
14,ATATTTTTCTTAAGTACACACTAAATAGAAACTAAA [CACACA_site4191],11.4 ± 1
15,ATTAATTATATAATATGTACATATTACAAATATATA [XGTACX_site1478],11.2 ± 0.71
16,AAAAAAAAAAAAAACACACACACACGCATACAAAAT [CACACA_site6794],10.3 ± 0.18
17,TATTTCATAATAAATTGTACGCGTAGAAAACCATGA [XGTACX_site7506],11.6 ± 0.94
18,AATAATATAACAGAACAAAACTAAATATACACATAT [TGCATGCA_negctrl_site31],9.9 ± 0.13
19,GAGAAAAATAAATACACACACATAAATAAATACATA [CACACA_site5102],10 ± 0.11
